System: astrin-raptor binding
Description: Antibodies are described elsewhere (Dalle Pezze et al., 2012b; Sonntag et al., 2012). Further antibodies were from Bethyl, Montgomery, Tex., USA against Histone H3 (#A300-823A), Histone H3-p 510 (#A301-844A), and DDX6/p54 (#A300-461A); from Cell Signaling Technology Inc., Boston, Mass., USA against ATF-4 (#11815), hnRNP-A1 (#8443), YB1 (#9744), HSP90 (#4877), HSP70 (#4867), HSF1 (#4356); from Santa Cruz, Calif., USA against G3BP1 (#sc-81940), astrin (#sc-98605); and from Abcam, Cambridge, UK against Plk1 (#ab17056). All antibodies were used according to the manufacturers' instructions. Monoclonal antibodies for PLA were generated in mice or rats for astrin, mTOR, and raptor by Dr. Elisabeth Kremmer, Helmholtz Zentrum München, Institute of Molecular Immunology, Marchioninistrasse 25, 81377 Munich, Germany. Peptides for antibody raising were made by Peptide Specialty Laboratories (PSL) GmbH, Heidelberg, Germany.
To identify novel mTOR regulators, the inventors immunopurified endogenous mTOR, raptor (mTORC1), and Rictor (mTORC2) from HeLa cells and analysed the immunprecipitates (IPs) by mass spectrometry (MS) as described (Thedieck et al., 2007). […]

Molecule | astrin mediated recruitment of raptor to SGs / mTORC1 disassembly (2 mM H2O2) | astrin association with raptor in co-IPs and in situ
OO [H2O2, Hydrogen peroxide] | reproduced those obtained with Arsenite | 
Arsenite |  | strongly increased

Reference: US10041933B2, “Modulators of the interaction of astrin and raptor, and uses thereof in cancer therapy” (ALBERT-LUDWIGS-UNIVERSITÄT FREIBURG, priority 2013, dated 2018)
